Results taken from patent publication EP0606463B1, “NEUROMEDIN B RECEPTOR ANTAGONISTS” (The Administrators of The Tulane Educational Fund, priority 1992, dated 1994).
Part of at least one peptide drawing is inferred or uncertain, most often the ends. For some of these results: At least one structure is not confirmed: it was looked up by name or label, or the drawing left a doubt. Where a SMILES comes first, the peptide text is derived from it. Bridges are numbered along the chain shown (N, C = ends). [ ]: non-standard residue; d: D form. 2Nal = N[C@@H](Cc1ccc2ccccc2c1)C(=O)O; d2Nal = N[C@H](Cc1ccc2ccccc2c1)C(=O)O

Tests used:
NMB Receptor = target: T1, NMB Receptor (Rattus norvegicus, UniProt P24053); assay: [3H]inositol phosphates (IP) in NMB-R transfected cells; assay type: cell-based; details: for IC50: summary of Table 1, read-out: IC50 of NMB-stimulated increases in [^3H]IP
T1 construct: a full length NMB-preferring bombesin receptor clone generated from rat esophagus; expressed in transfected cells; host or cells: BALB 3T3 cells
T1 sequence (P24053 1-390): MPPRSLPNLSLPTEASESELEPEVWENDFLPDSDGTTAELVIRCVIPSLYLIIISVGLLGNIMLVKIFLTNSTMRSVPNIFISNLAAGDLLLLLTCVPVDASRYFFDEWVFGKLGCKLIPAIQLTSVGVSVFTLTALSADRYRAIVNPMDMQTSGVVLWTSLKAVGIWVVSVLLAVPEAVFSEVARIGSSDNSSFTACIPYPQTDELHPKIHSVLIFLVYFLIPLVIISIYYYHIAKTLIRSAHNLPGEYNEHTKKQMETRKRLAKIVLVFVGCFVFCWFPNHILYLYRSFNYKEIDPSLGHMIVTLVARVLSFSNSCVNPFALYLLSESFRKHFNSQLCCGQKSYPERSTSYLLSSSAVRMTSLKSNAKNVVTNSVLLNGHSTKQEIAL
Description: As described previously [Wada, E., et al. Neuron 6:421 (1991)], BALB 3T3 cells expressing a stably transfected rat NMB receptor (NMB-R transfected cells) were obtained using calcium phosphate precipitation of a full length NMB-preferring bombesin receptor clone generated from rat esophagus and subcloned into a modified version of the pCD2 plasmid. Cells were passaged every 3-4 days at confluence, using 0.1% trypsin in 1 mM EDTA. Rat glioblastoma C-6 tumor cells were maintained similarly and were passaged weekly at confluence. Both cell lines were cultured at 37°C in a 5% CO2 atmosphere. Rat AR 42J pancreatic acinar cells were cultured in Dulbecco's modified Eagle's medium (DMEM) without antibiotics and supplemented with 10% (vol/vol) fetal calf serum. The incubation atmosphere consisted of 10% CO2-90% humidified air at 37°C.
Total phosphoinositides in C-6 cells and in NMB-R transfected cells were determined as described previously, with minor modifications [Benya, R. V. et al. Mol. Pharmacol. 42:1058 (1992); and Wang, L-H. et al. Biochem. J. 286:641 (1992)]. Cells were grown to confluence in 24-well plates and then loaded with 100 µCi/ml myo-[2-^3H]inositol in Dulbecco's modified essential medium with 2% fetal bovine serum at 37°C for 48 hrs. Cells were washed and incubated in phosphoinositide buffer (standard buffer additionally containing 10 mM LiCl, 20 mM HEPES, 2 mM CaCl2, 2% BSA, and 1.2 mM MgSO4) for 15 min and then for 60 min at 37°C with agonists at various concentrations or with 3 nM NMB (a half-maximal effective concentration) and possible antagonists at different concentrations. Reactions were halted using ice-cold 1% HCl in methanol, and the inositol phosphates (IP) were isolated as described previously [Bologna, M. et al. Cancer 63:1714 (1989); and Endo, T. et al. J. Endocrinol. 131:313 (1991)]. Briefly, after loading of the anion exchange column, free [^3H]glycerophosphorylinositol was removed by washing with 5 mM disodium tetraborate in 60 mM sodium formate. Total [^3H]inositol phosphates were then eluted using 100 mM formic acid in 1.0 M ammonium formate as described previously [Benya, R. V. et al. Mol. Pharmacol. 42:1058 (1992); and Wang, L-H. et al. Biochem. J. 286:641 (1992)].

rat NMB receptor = target: T2, rat NMB receptor (Rattus norvegicus, UniProt P24053); assay: Binding of 125I-[D-Tyr0]NMB to NMB-R transfected BALB 3T3 cells; details: for Ki: read-out: K1, NMB-R transfected cells, summary of Table 1
T2 construct: a full length NMB-preferring bombesin receptor clone generated from rat esophagus; expressed in transfected cells; host or cells: BALB 3T3 cells
T2 sequence (P24053 1-390): T1 sequence (P24053 1-390)
Description: Cells were passaged every 3-4 days at confluence, using 0.1% trypsin in 1 mM EDTA. Rat glioblastoma C-6 tumor cells were maintained similarly and were passaged weekly at confluence. Both cell lines were cultured at 37°C in a 5% CO2 atmosphere. Rat AR 42J pancreatic acinar cells were cultured in Dulbecco's modified Eagle's medium (DMEM) without antibiotics and supplemented with 10% (vol/vol) fetal calf serum. The incubation atmosphere consisted of 10% CO2-90% humidified air at 37°C.

mu opioid receptors = target: T3, mu opioid receptors (Rattus norvegicus, UniProt P33535); assay: mu opioid membrane assay ([3H]DAGO, rat forebrain membranes); assay type: binding; details: rat forebrain membranes; concentrations up to 10 µM
T3 construct: rat forebrain (TRH, mu and delta opioid membrane assays); from tissue; host or cells: rat forebrain membranes
T3 sequence (P33535 whole entry): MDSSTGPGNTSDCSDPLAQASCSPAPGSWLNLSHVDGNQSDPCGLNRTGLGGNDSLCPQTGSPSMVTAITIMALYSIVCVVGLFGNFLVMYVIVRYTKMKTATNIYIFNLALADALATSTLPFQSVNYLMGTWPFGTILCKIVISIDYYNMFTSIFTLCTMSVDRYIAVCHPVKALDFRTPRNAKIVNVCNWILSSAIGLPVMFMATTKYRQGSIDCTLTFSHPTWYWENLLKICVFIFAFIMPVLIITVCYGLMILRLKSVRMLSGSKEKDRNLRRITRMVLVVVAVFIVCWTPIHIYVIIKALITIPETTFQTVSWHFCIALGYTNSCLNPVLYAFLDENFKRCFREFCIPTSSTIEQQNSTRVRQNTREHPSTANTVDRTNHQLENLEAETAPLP

[1] = target: T4, GRP receptors on AR 42J cell membranes (Rattus norvegicus, UniProt P52500); assay: GRP membrane receptor assay (AR 42J cell membranes); assay type: binding; details: concentrations up to 10 µM
T4 construct: endogenous in cells; host or cells: rat AR 42J pancreatic acinar cells (membranes)
T4 sequence (P52500 whole entry): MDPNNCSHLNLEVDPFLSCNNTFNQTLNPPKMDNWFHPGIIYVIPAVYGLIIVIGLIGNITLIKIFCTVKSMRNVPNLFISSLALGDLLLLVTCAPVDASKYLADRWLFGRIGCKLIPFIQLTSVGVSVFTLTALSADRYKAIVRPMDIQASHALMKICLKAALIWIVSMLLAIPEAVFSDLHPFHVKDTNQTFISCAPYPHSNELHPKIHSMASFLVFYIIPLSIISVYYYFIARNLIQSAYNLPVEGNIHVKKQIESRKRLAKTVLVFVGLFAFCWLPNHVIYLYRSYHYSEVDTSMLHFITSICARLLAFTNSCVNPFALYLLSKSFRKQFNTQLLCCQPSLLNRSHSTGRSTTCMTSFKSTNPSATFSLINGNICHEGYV

GRP Receptor = target: T5, GRP Receptor (Rattus norvegicus, UniProt P52500); assay: Amylase release from rat pancreatic acini; assay type: cell-based; details: for Rat Pancreatic Acini Amylase Release Alone (10µM): analog 10 µM alone, no-additive control 4 ± 1; for Rat Pancreatic Acini Amylase Release Plus Bn(0.3 nM): analog 10 µM plus Bn 0.3 nM, Bn without analog 15 ± 1; for agonist activity: amylase release: rat pancreatic acini, 10 µM
T5 construct: from tissue; host or cells: dispersed pancreatic acini
T5 sequence (P52500 whole entry): as above

SMILES | IC50 (NMB Receptor; NMB-R transfected cells) | Ki (rat NMB receptor) | Rat Pancreatic Acini Amylase Release Alone (10µM) (GRP Receptor) | Rat Pancreatic Acini Amylase Release Plus Bn(0.3 nM) (GRP Receptor) | other results
CC(C)[C@@H]1NC(=O)[C@H](CCCCN)NC(=O)[C@@H](Cc2c[nH]c3ccccc23)NC(=O)[C@H](Cc2ccc(O)cc2)NC(=O)[C@@H](NC(=O)[C@H](N)Cc2ccccc2)CSSC[C@@H](C(=O)N[C@@H](Cc2ccc3ccccc3c2)C(N)=O)NC1=O [Analog #4, [D-Phe^1]-cyclo SS-octa] (H-[dF]CY[dW]KVC[2Nal]-NH2; disulfide 2-7; N-terminus assumed) | 3 to 6.6 µM | 0.7 to 0.8 µM | – | – | –
CC(C)[C@@H]1NC(=O)[C@H](CCCCN)NC(=O)[C@@H](Cc2c[nH]c3ccccc23)NC(=O)[C@H](Cc2ccc(O)cc2)NC(=O)[C@@H](NC(=O)[C@@H](N)Cc2ccc3ccccc3c2)CSSC[C@@H](C(=O)N[C@H](Cc2ccc3ccccc3c2)C(N)=O)NC1=O [Analog #9, [Nal^1,D-Nal^8]-cyclo SS-octa] (H-[2Nal]CY[dW]KVC[d2Nal]-NH2; disulfide 2-7; N-terminus assumed) | 4.4 to 5.2 µM | 1 to 1.2 µM | – | – | –
CSCC[C@H](NC(=O)[C@H](C)NC(=O)[C@@H]1CCCN1C(=O)[C@H](CC(N)=O)NC(=O)[C@H](CO)NC(=O)[C@H](CC(N)=O)NC(=O)[C@H](C)NC(=O)[C@@H](N)CO)C(=O)N[C@@H](C)C(=O)N1CCC[C@H]1C(=O)N[C@@H](CCCNC(=N)N)C(=O)N[C@@H](CCC(=O)O)C(=O)N[C@@H](CCCNC(=N)N)C(=O)N[C@@H](CCCCN)C(=O)N[C@@H](C)C(=O)NCC(=O)N[C@H]1CSSC[C@@H](C(=O)O)NC(=O)[C@H](CO)NC(=O)[C@H]([C@@H](C)O)NC(=O)[C@H](Cc2ccccc2)NC(=O)[C@H]([C@@H](C)O)NC(=O)[C@H](CCCCN)NC(=O)[C@H](Cc2c[nH]c3ccccc23)NC(=O)[C@H](Cc2ccccc2)NC(=O)[C@H](Cc2ccccc2)NC(=O)[C@H](CC(N)=O)NC(=O)[C@H](CCCCN)NC1=O [SS-28, somatostatin-28, reference compound] | – | – | 4 ± 1 % total | 10 ± 1 % total | inhibition of binding to mu opioid receptors (mu opioid receptors): neither SS-14 nor SS-28 at concentrations up to 10 µM inhibited binding; inhibition of binding to GRP receptors on AR 42J cell membranes [1]: neither SS-14 nor SS-28 at concentrations up to 10 µM inhibited binding; agonist activity: amylase release (GRP Receptor): Neither SS-14, SS-28 nor any of the 19 SS-octapeptide analogs at a concentration of 10 µM had agonist activity
CC(C)[C@@H]1NC(=O)[C@H](CCCCN)NC(=O)[C@@H](Cc2c[nH]c3ccccc23)NC(=O)[C@H](Cc2ccc(O)cc2)NC(=O)[C@@H](NC(=O)[C@H](N)Cc2ccc3ccccc3c2)CSSC[C@@H](C(=O)N[C@H](C(N)=O)[C@@H](C)O)NC1=O [Analog #5, [Thr^8]-cyclo-SS-octa] | – | – | 3 ± 1 % total | 12 ± 1 % total | effect on NMB-stimulated increase in [^3H]IP (NMB Receptor; NMB-R transfected cells, 3 nM NMB, peptide 10 µM): had no effect; NMB-R Transfected Cells [^3H]IP Alone (10 µ M) (NMB Receptor; analog 10 µM alone, no-additive control 13 ± 3): 11 ± 2 dpm x 10^3; NMB-R Transfected Cells [^3H]IP Plus NMB (3 nM) (NMB Receptor; analog 10 µM plus NMB 3 nM, NMB without analog 186 ± 58): 179 ± 13 dpm x 10^3; fold by which cyclo SS-octa was more potent than the analog (rat NMB receptor; inhibition of ^125I-[Tyr^0]NMB binding to NMB-R transfected cells): 69 fold; decrease in NMB receptor affinity compared with #1 (rat NMB receptor; structure-function comparison of Table 1 values): 80 fold
C[C@@H](O)[C@H](NC(=O)[C@@H]1CSSC[C@H](NC(=O)[C@H](N)Cc2ccc3ccccc3c2)C(=O)N[C@@H](Cc2ccc(O)cc2)C(=O)N[C@H](Cc2c[nH]c3ccccc23)C(=O)N[C@@H](CCCCN)C(=O)N[C@@H](Cc2ccc3ccccc3c2)C(=O)N1)C(N)=O [Analog #2, [Nal^6,Thr^8]-cyclo SS-octa] | 3 to 6.6 µM | 0.7 to 0.8 µM | – | – | –
CC(C)[C@@H]1NC(=O)[C@H](CCCCN)NC(=O)[C@@H](Cc2c[nH]c3ccccc23)NC(=O)[C@H](Cc2ccc(O)cc2)NC(=O)[C@@H](NC(=O)[C@H](N)Cc2c[nH]c3ccccc23)CSSC[C@@H](C(=O)N[C@@H](Cc2ccc3ccccc3c2)C(N)=O)NC1=O [Analog #12, [D-Trp^1]-cyclo SS-octa] (H-[dW]CY[dW]KVC[2Nal]-NH2; disulfide 2-7; N-terminus assumed) | 4.4 to 5.2 µM | – | – | – | –
C[C@H](N)C(=O)NCC(=O)N[C@H]1CSSC[C@@H](C(=O)O)NC(=O)[C@H](CO)NC(=O)[C@H]([C@@H](C)O)NC(=O)[C@H](Cc2ccccc2)NC(=O)[C@H]([C@@H](C)O)NC(=O)[C@H](CCCCN)NC(=O)[C@H](Cc2c[nH]c3ccccc23)NC(=O)[C@H](Cc2ccccc2)NC(=O)[C@H](Cc2ccccc2)NC(=O)[C@H](CC(N)=O)NC(=O)[C@H](CCCCN)NC1=O [SS-14, somatostatin-14, reference compound] | – | – | 3 ± 1 % total | 12 ± 1 % total | inhibition of binding to mu opioid receptors (mu opioid receptors): neither SS-14 nor SS-28 at concentrations up to 10 µM inhibited binding; inhibition of binding to GRP receptors on AR 42J cell membranes [1]: neither SS-14 nor SS-28 at concentrations up to 10 µM inhibited binding; agonist activity: amylase release (GRP Receptor): Neither SS-14, SS-28 nor any of the 19 SS-octapeptide analogs at a concentration of 10 µM had agonist activity
CC(C)[C@@H]1NC(=O)[C@H](CCCCN)NC(=O)[C@@H](Cc2c[nH]c3ccccc23)NC(=O)[C@H](Cc2ccc(O)cc2)NC(=O)[C@H](NC(=O)[C@H](N)Cc2ccc3ccccc3c2)CSSC[C@@H](C(=O)N[C@@H](Cc2ccc3ccccc3c2)C(N)=O)NC1=O [Analog #10, [D-Cys^2]-cyclo SS-octa] (H-[d2Nal][dC]Y[dW]KVC[2Nal]-NH2; disulfide 2-7; N-terminus assumed) | 4.4 to 5.2 µM | 1 to 1.2 µM | – | – | –
CC(C)[C@@H]1NC(=O)[C@H](CCCCN)NC(=O)[C@@H](Cc2c[nH]c3ccccc23)NC(=O)[C@H](Cc2ccc(O)cc2)NC(=O)[C@@H](NC(=O)[C@H](N)Cc2ccc3ccccc3c2)CSSC[C@H](C(=O)N[C@@H](Cc2ccc3ccccc3c2)C(N)=O)NC1=O [Analog #11, [D-Cys^7]-cyclo SS-octa] (H-[d2Nal]CY[dW]KV[dC][2Nal]-NH2; disulfide 2-7; N-terminus assumed) | – | 1 to 1.2 µM | – | – | –
CC(C)[C@@H]1NC(=O)[C@H](CCCCN)NC(=O)[C@@H](Cc2c[nH]c3ccccc23)NC(=O)[C@H](Cc2ccc(O)cc2)NC(=O)[C@@H](NC(=O)[C@H](N)Cc2ccc3ccccc3c2)CSSC[C@@H](C(=O)N[C@H](Cc2ccc3ccccc3c2)C(N)=O)NC1=O [Analog #8, [D-Nal^8]-cyclo SS-octa] (H-[d2Nal]CY[dW]KVC[d2Nal]-NH2; disulfide 2-7; N-terminus assumed) | 4.4 to 5.2 µM | – | – | – | –
